For 32 sequences, binding signal results are on record in paper PMC12820563, “FoxP3 forms a head-to-head dimer in vivo and stabilizes its multimerization on adjacent microsatellites”.

The other results are listed elsewhere or left out.

In this assay the target is T1, MBP-FoxP1dN (Mus musculus, UniProt P58462 326-579).
T1 sequence: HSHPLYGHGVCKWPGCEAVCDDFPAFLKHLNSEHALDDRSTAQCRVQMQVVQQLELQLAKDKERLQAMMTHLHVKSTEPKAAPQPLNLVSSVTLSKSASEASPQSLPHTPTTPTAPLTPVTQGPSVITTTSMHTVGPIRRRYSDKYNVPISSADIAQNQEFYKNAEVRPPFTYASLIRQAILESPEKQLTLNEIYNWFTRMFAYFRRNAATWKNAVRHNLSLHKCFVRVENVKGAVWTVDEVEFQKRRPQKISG
The assay can be described thus: PD-seq (MBP pull-down with sequencing); 20 mM Tris-HCl pH 7.5, 100 mM NaCl, 1.5 mM MgCl2, 0.4 uM protein, 0.1 uM dsDNA library, 30 min, room temperature, amylose pull-down; high values mean tight binding. The settings on record: protein: recombinant; tags: His6-MBP; chain copies: 2; dsDNA, one strand shown. An outline of the steps:
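Binding is the reads-per-million enrichment of pull-down relative to input, pooled across replicates. For this, 0.4 µM His6-MBP-tagged mouse FoxP3 or FoxP1 fragment lacking the N-terminus, made in E. coli, was incubated with 0.1 µM Klenow-filled double-stranded degenerate DNA library for 30 min at room temperature in Tris pH 7.5 buffer with NaCl and MgCl2. Complexes bound to amylose resin were washed three times before proteinase K released the DNA for PCR barcoding and Illumina sequencing.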
For the sequence “GATGATTGTTCTCCCAGCTGATGAATTATTGCGGTCGAGTAAACAAATTTTCCTAATCTTTCTGTTCAAGCGCCATCTAC”, the binding signal is 1.08 RPM ratio (pull-down/input).
With “GATGATTGTTCTCCCAGCTGATGAATTGTCAACATCGAGTAAACAAATTTTCCTAATCTTTCTGTTCAAGCGCCATCTAC” the figure was 2.76 RPM ratio (pull-down/input); with “GATGATTGTTCTCCCAGCTGATGAATTGGTTCCATCGAGTAAACAAATTTTCCTAATCTTTCTGTTCAAGCGCCATCTAC”, 0.944 RPM ratio (pull-down/input); with “GATGATTGTTCTCCCAGCTGATGAATTCTAATCTTCGAGTAAACAAATTTTCCTAATCTTTCTGTTCAAGCGCCATCTAC”, 0.849 RPM ratio (pull-down/input).
Regarding “GATGATTGTTCTCCCAGCTGATGAATTGGAATTCTCGAGTAAACAAATTTTCCTAATCTTTCTGTTCAAGCGCCATCTAC”, the binding signal was 0.865 RPM ratio (pull-down/input).
The value for “GATGATTGTTCTCCCAGCTGATGAATTTCGTACGTCGAGTAAACAAATTTTCCTAATCTTTCTGTTCAAGCGCCATCTAC” was 0.915 RPM ratio (pull-down/input); that for “GATGATTGTTCTCCCAGCTGATGAATTCATTCCGTCGAGTAAACAAATTTTCCTAATCTTTCTGTTCAAGCGCCATCTAC” was 0.844 RPM ratio (pull-down/input); that for “GATGATTGTTCTCCCAGCTGATGAATTCTGGGTGTCGAGTAAACAAATTTTCCTAATCTTTCTGTTCAAGCGCCATCTAC” was 0.785 RPM ratio (pull-down/input).
With “GATGATTGTTCTCCCAGCTGATGAATTCCCAACCTCGAGTAAACAAATTTTCCTAATCTTTCTGTTCAAGCGCCATCTAC” the figure was 0.775 RPM ratio (pull-down/input); with “GATGATTGTTCTCCCAGCTGATGAATTTATTATTTCGAGTAAACAAATTTTCCTAATCTTTCTGTTCAAGCGCCATCTAC”, 1.6 RPM ratio (pull-down/input).
The value for “GATGATTGTTCTCCCAGCTGATGAATTACGTAGATCGAGTAAACAAATTTTCCTAATCTTTCTGTTCAAGCGCCATCTAC” was 1.05 RPM ratio (pull-down/input).
With “GATGATTGTTCTCCCAGCTGATGAATTTAACCGGTCGAGTAAACAAATTTTCCTAATCTTTCTGTTCAAGCGCCATCTAC”, the binding signal was 0.765 RPM ratio (pull-down/input).
With “GATGATTGTTCTCCCAGCTGATGAATTAGAAGACTCGAGTAAACAAATTTTCCTAATCTTTCTGTTCAAGCGCCATCTAC” the figure was 0.894 RPM ratio (pull-down/input); with “GATGATTGTTCTCCCAGCTGATGAATTCATGCCATCGAGTAAACAAATTTTCCTAATCTTTCTGTTCAAGCGCCATCTAC”, 0.991 RPM ratio (pull-down/input); with “GATGATTGTTCTCCCAGCTGATGAATTCCGGCTATCGAGTAAACAAATTTTCCTAATCTTTCTGTTCAAGCGCCATCTAC”, 0.843 RPM ratio (pull-down/input).
As for “GATGATTGTTCTCCCAGCTGATGAATTAAACTAATCGAGTAAACAAATTTTCCTAATCTTTCTGTTCAAGCGCCATCTAC”, the binding signal was 1.09 RPM ratio (pull-down/input).
The value for “GATGATTGTTCTCCCAGCTGATGAATTACTCCAATCGAGTAAACAAATTTTCCTAATCTTTCTGTTCAAGCGCCATCTAC” was 1.1 RPM ratio (pull-down/input).
In the case of “GATGATTGTTCTCCCAGCTGATGAATTGATCTATTCGAGTAAACAAATTTTCCTAATCTTTCTGTTCAAGCGCCATCTAC”, the binding signal was 1.15 RPM ratio (pull-down/input).
The value for “GATGATTGTTCTCCCAGCTGATGAATTACACCTCTCGAGTAAACAAATTTTCCTAATCTTTCTGTTCAAGCGCCATCTAC” was 1.02 RPM ratio (pull-down/input); that for “GATGATTGTTCTCCCAGCTGATGAATTCGTGGCGTCGAGTAAACAAATTTTCCTAATCTTTCTGTTCAAGCGCCATCTAC” was 0.862 RPM ratio (pull-down/input); that for “GATGATTGTTCTCCCAGCTGATGAATTCACCATCTCGAGTAAACAAATTTTCCTAATCTTTCTGTTCAAGCGCCATCTAC” was 0.846 RPM ratio (pull-down/input).
For the sequence “GATGATTGTTCTCCCAGCTGATGAATTAGGTTGCTCGAGTAAACAAATTTTCCTAATCTTTCTGTTCAAGCGCCATCTAC”, the binding signal is 1.03 RPM ratio (pull-down/input).
With “GATGATTGTTCTCCCAGCTGATGAATTAGAACGCTCGAGTAAACAAATTTTCCTAATCTTTCTGTTCAAGCGCCATCTAC” the figure was 0.916 RPM ratio (pull-down/input).
The value for “GATGATTGTTCTCCCAGCTGATGAATTGGAAAAGTCGAGTAAACAAATTTTCCTAATCTTTCTGTTCAAGCGCCATCTAC” was 0.844 RPM ratio (pull-down/input); that for “GATGATTGTTCTCCCAGCTGATGAATTGACCAACTCGAGTAAACAAATTTTCCTAATCTTTCTGTTCAAGCGCCATCTAC” was 0.971 RPM ratio (pull-down/input).
In the case of “GATGATTGTTCTCCCAGCTGATGAATTCGATATCTCGAGTAAACAAATTTTCCTAATCTTTCTGTTCAAGCGCCATCTAC”, the binding signal is 0.765 RPM ratio (pull-down/input).
With “GATGATTGTTCTCCCAGCTGATGAATTGCACCAGTCGAGTAAACAAATTTTCCTAATCTTTCTGTTCAAGCGCCATCTAC” the figure was 1.07 RPM ratio (pull-down/input); with “GATGATTGTTCTCCCAGCTGATGAATTATGGTCATCGAGTAAACAAATTTTCCTAATCTTTCTGTTCAAGCGCCATCTAC”, 1.04 RPM ratio (pull-down/input); with “GATGATTGTTCTCCCAGCTGATGAATTGAACGTCTCGAGTAAACAAATTTTCCTAATCTTTCTGTTCAAGCGCCATCTAC”, 0.787 RPM ratio (pull-down/input).
With “GATGATTGTTCTCCCAGCTGATGAATTAGCTGTGTCGAGTAAACAAATTTTCCTAATCTTTCTGTTCAAGCGCCATCTAC” the figure was 1 RPM ratio (pull-down/input); with “GATGATTGTTCTCCCAGCTGATGAATTTTATGGATCGAGTAAACAAATTTTCCTAATCTTTCTGTTCAAGCGCCATCTAC”, 0.887 RPM ratio (pull-down/input); with “GATGATTGTTCTCCCAGCTGATGAATTGCCCGAGTCGAGTAAACAAATTTTCCTAATCTTTCTGTTCAAGCGCCATCTAC”, 0.845 RPM ratio (pull-down/input).
